Results as given in the supplement of paper PMC10126150.
Sequences with one replicate were seen in a single cluster, so their values are uncertain.

System: ATP
Assay: switch fluorescence ratio, 500 uM ATP over buffer (Cy3 cluster intensity, sum of 5 cycles each) (fold (ratio)); higher = stronger signal-on switching upon ATP binding; sequences stand for … in TCGTCGGCAGCGTCAGATGTGTATAAGAGACAGTTTTTTTTTTTTTTTTTTTTTTTTT…TC
Conditions: aptamer strand: ATP DNA aptamer (quencher-CACCTGGGGGAGTATTGCGGAGGAAGG + anchor), 100 nM annealed; ATP concentration: 500 uM; one replicate
Outline: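 Between each of five buffer/ATP cycles, the flow-cell was stripped with NaOH and re-annealed. Each cycle imaged Cy3-labelled switching-strand clusters, annealed to 100 nM quencher-labelled ATP aptamer on a modified Illumina MiSeq flow-cell, first in selection buffer and then after 15 min with 500 uM ATP at 22 °C. The fluorescence ratio is summed target-cycle over summed buffer-cycle Cy3 intensity per cluster, averaged per switch-domain sequence, with clusters outside 100-1000 RFU excluded.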
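Note: ATP exposure 15 min at 22 °C before imaging.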

Sequence	switch fluorescence ratio
AAAAAATGAT	1.03
AAAAAGGGGC	1
AAAAAGTACA	1.07
AAAAATGATT	0.989
AAAAATTTAC	1.1
AAAACGCGCG	0.972
AAAACGCTTG	0.993
AAAACGGTG	1.09
AAAACTGCTT	1.07
AAAACTGGAG	1.03
AAAACTTAAA	1
AAAACTTGGC	1.03
AAAAGAACCG	1.08
AAAAGACTTA	1.02
AAAAGCAG	0.986
AAAAGCCGTC	1
AAAAGCGGCA	1.03
AAAAGGCTGG	1.02
AAAAGGTCGA	0.964
AAAAGTGAGA	0.978
AAAAGTGCTA	0.959
AAAATATGTA	1.05
AAAATATTGC	0.944
AAAATCCCGT	1.02
AAAATCCTCC	1.68
AAAATCGTAT	1.01

Sequence	switch fluorescence ratio
AAAATGAAGG	0.972
AAAATGAGA	1.04
AAAATGCCGT	1.01
AAAATGGGTC	0.963
AAAATGTCCA	0.963
AAAATTCCAC	1.05
AAAATTCGAG	1.02
AAAATTGCTT	1
AAAATTTTAA	0.96
AAACACAGAT	1.01
AAACACGGAT	1.04
AAACACGGGG	1.1
AAACACGTGT	1.13
AAACATACAA	1.17
AAACATAGAA	0.96
AAACATATAA	1
AAACATTGCT	1.11
AAACATTTAA	1.01
AAACCACGGA	1.64
AAACCCCGGC	1.17
AAACCTGCGA	1.25
AAACCTGCGG	1
AAACGATAAC	1.15
AAACGATAGT	0.975
AAACGATCCG	1.09
AAACGCCCAT	1.07

Sequence	switch fluorescence ratio
AAACGCCGAG	1.06
AAACGCGTCC	1.14
AAACGGAATC	1.65
AAACGGATTT	1.13
AAACTAATAC	1.48
AAACTATGCT	1.04
AAACTCAGCA	1.19
AAACTCATTT	1.02
AAACTCCCGT	1.03
AAACTCGGCA	1.21
AAACTCGGGA	1.01
AAACTCGTAT	0.983
AAACTGAG	1.05
AAACTGGACT	1.04
AAACTGTCTG	0.975
AAACTGTGGC	1.06
AAACTTCCGT	1.13
AAACTTTGGG	1
AAAGAAAGCA	1.04
AAAGAATGAA	1
AAAGACATAC	1.67
AAAGAGGTA	0.972
AAAGATAAAA	0.974
AAAGATCAA	1.05
AAAGATGATC	1.03
AAAGCATTTC	1.21

Sequence	switch fluorescence ratio
AAAGCCGAGC	1.02
AAAGCGGAGC	1.07
AAAGCGGCCG	0.97
AAAGCGGTTT	1.01
AAAGCTTAGC	0.938
AAAGGACGCA	1.26
AAAGGCCTGC	0.997
AAAGGGCTAA	0.986
AAAGGGCTGA	0.908
AAAGGGTATT	1.03
AAAGGGTCTT	0.995
AAAGGTCGTA	1.02
AAAGTAATTC	1.05
AAAGTACCTC	1.09
AAAGTAGCAC	1.01
AAAGTAGTAT	0.993
AAAGTAGTGG	1.02
AAAGTCGCCT	1.02
AAAGTGCATT	0.968
AAAGTGCTCA	0.976
AAATAAGAAC	1.16
AAATAAGCA	0.988
AAATAATGTA	1.01
AAATAATTGA	0.994
AAATACCGCG	1.35
AAATACCTCG	1.07

Sequence	switch fluorescence ratio
AAATACGGAA	1.08
AAATAGGGCA	1.11
AAATATAACA	0.998
AAATATAGTA	0.971
AAATCAACCA	0.988
AAATCATGCG	0.967
AAATCCATA	1.01
AAATCCGAGT	1.07
AAATCTAAAC	1.02
AAATCTACTC	1.03
AAATCTCAA	1.02
AAATGATATG	0.989
AAATGATGTA	0.957
AAATGATTAC	1.08
AAATGCACGA	0.953
AAATGCCAGT	0.961
AAATGCGATG	0.976
AAATGCGTCG	1.07
AAATGGTG	1.07
AAATGGTGCG	0.985
AAATGTACTT	0.997
AAATGTGTGT	1.01
AAATTAGAG	0.996
AAATTAGCCT	1.14
AAATTCGAGC	1.03
AAATTCGTAG	0.942

Sequence	switch fluorescence ratio
AAATTGACGA	1.05
AAATTTGAA	1.03
AAATTTGAG	0.994
AAATTTGCTC	0.914
AAATTTGTAG	0.987
AACAAAGAGT	1.02
AACAAAGGAA	0.994
AACAACCCGT	1.03
AACAAGGTAC	1.09
AACAATCGCG	0.965
AACACCTGCG	1.1
AACACGGGAC	1.44
AACAGAGCCG	1.06
AACAGAGTGT	0.992
AACAGCTGT	1.01
AACAGGAAC	1.02
AACAGGCGCC	1.02
AACAGTAAG	1
AACAGTACCG	1.12
AACAGTAGTG	1.06
AACAGTCCTG	1.02
AACATAATCA	1.05
AACATACTGT	1.11
AACATCAGGT	1.02
AACATCATGG	1.03
AACATGAATC	0.964

Sequence	switch fluorescence ratio
AACATGGTTA	1.05
AACCAAAAGT	0.968
AACCAACTA	1.03
AACCACAGTG	1.38
AACCAGAACA	0.973
AACCAGAATT	1.04
AACCAGGTAC	1.14
AACCATATCG	1.03
AACCATGGGC	0.955
AACCATTCAC	1.14
AACCCATTGC	1.07
AACCCCGGAA	2.21
AACCCGTGTG	1.05
AACCCGTTTT	1.01
AACCCTGGGC	0.982
AACCGGCTAG	0.98
AACCGTTGCC	1.07
AACCTAACCC	1.21
AACCTAAGTC	1.02
AACCTACTAC	1.33
AACCTACTGT	1.14
AACCTCTTCG	1.34
AACCTGGGTT	0.983
AACCTTACTT	1.58
AACCTTGTCG	1.11
AACCTTTGGA	0.996

Sequence	switch fluorescence ratio
AACGAAATAA	1.14
AACGAAGTCC	1.05
AACGACATGT	1.02
AACGACCGAC	2.53
AACGACGGGT	1.02
AACGAGAAAG	1.04
AACGAGGGAA	1.03
AACGAGGTAA	1.09
AACGATAACT	1.08
AACGATATAC	2.17
AACGCACACG	1.43
AACGCATCAC	5.45
AACGCCGCCG	0.992
AACGCCGTGG	1.02
AACGCCTGGG	1.03
AACGCGAAGC	1
AACGCGAAGG	1.02
AACGCGAATC	2.2
AACGCTCAGC	1.04
